# Assay results taken from PubChem BioAssay AID2202238 (Ras Initiative Chemistry Research Team, Frederick National …, 2025).
# This is one part of the list. Further columns of the screen follow, without active or inactive calls.
# Biological target: GTPase KRas (Homo sapiens) (UniProt P01116)
# Test: Fragment capture on engineered cysteines, share of protein labelled (AID 2202238)
# Set-up: protein at 5 µM with 500 µM competing thiol for 1.5 h
# Settings: KRAS G12D cysteine mutants, disulfide tethering, MALDI-TOF labeling, stronger effect = higher value, fragment at 500 µM
# [1] = measured here: G75C mutant labeling
# [2] = measured here: H94C mutant labeling
# [3] = measured here: I36C mutant labeling
# [4] = measured here: L120C mutant labeling
# [5] = measured here: M67C mutant labeling
# [6] = measured here: M72C mutant labeling
# [7] = measured here: N86C mutant labeling
# [8] = measured here: P121C mutant labeling
# [9] = measured here: S122C mutant labeling
# [10] = measured here: S136C mutant labeling
# [11] = measured here: G60C mutant labeling
# [12] = measured here: N26C mutant labeling
# UniProt P01116, sequence (P01116 whole entry, looked up, the tested form may be a part): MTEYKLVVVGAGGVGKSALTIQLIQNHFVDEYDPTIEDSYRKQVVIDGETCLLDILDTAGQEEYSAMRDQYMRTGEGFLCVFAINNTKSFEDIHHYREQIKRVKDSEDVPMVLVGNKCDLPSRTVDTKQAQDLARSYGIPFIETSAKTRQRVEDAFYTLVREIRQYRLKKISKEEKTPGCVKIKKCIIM
SMILES,percent labeling [1] [%],percent labeling [2] [%],percent labeling [3] [%],percent labeling [4] [%],percent labeling [5] [%],percent labeling [6] [%],percent labeling [7] [%],percent labeling [8] [%],percent labeling [9] [%],percent labeling [10] [%],percent labeling [11] [%],percent labeling [12] [%]
O=C(CCS)N1CCCN2c3ccccc3CC2C1 (stereo not given),3.8,8.6,12.9,12,20.6,14.8,0,13.5,12.5,24.2,–,–
COc1ccc(C(=O)NCCS)cc1-c1ccnn1C,24.3,32.7,28.9,43.5,33,53.7,20.4,23.5,25.6,77.5,39.7,47.6
COc1cnc(C2CCCN2C(=O)CCS)[nH]c1=O (stereo not given),5.7,23.9,30.1,40.6,29.8,9.3,19.5,31.2,34.4,51.2,–,–
O=C(CCS)NCc1ccn(-c2cccc(Cl)c2)n1,4.1,18.1,19.7,12.2,15.9,34.3,0,11.6,11.1,20,–,–
CCc1ccc(C(=O)Nc2sccc2C(=O)NCCS)cc1,17.9,33.1,13.3,17.1,9.8,46.5,9.1,12,4.3,20.8,47.4,25.5
O=C(NCCS)[C@@H]1CCCO[C@H]1c1ncc[nH]1,7.4,27.8,24.1,30.6,23.8,10.7,22.6,28.9,22.2,40.9,21.8,29.3
O=C(CCC(=O)N1CCN(c2ncccn2)CC1)NCCS,11.8,26.6,20.8,39.7,24.9,19,20.9,27.1,23.4,39,24.4,32
O=C(Cc1ccc(C(F)(F)F)nc1)NCCS,9.8,29.7,26.9,33.9,29.8,21.4,19.7,32.2,26.6,37.7,26.9,33.6
Cc1nc2ccnn2c(C)c1CCC(=O)NCCS,12.8,27.6,35.8,26.3,30.8,21.2,21.5,33.5,27.2,41.7,35.1,36.7
CN1C(=O)c2ccccc2Sc2ccc(NC(=O)CCS)cc21,11.7,11,41.6,9.6,26.6,38,13.3,11.2,5.8,23.9,–,–
O=C(NCCS)c1csc(-c2ccc(Cl)cc2)c1,6,9.6,9.6,10.9,8.5,54.1,9.5,9.1,7.2,13.9,17.6,29.5
O=C(CCS)NCCn1ncc2ccccc2c1=O,11.8,30.1,43.8,38.2,41.5,25.7,29,36.5,33.8,60,–,–
CN(C)c1noc(C2CN(C(=O)CCS)C2)n1,12.3,19.7,25.4,23.2,28.7,16.2,21,28.6,34.9,48.2,–,–
O=C(CCS)Nc1cccc(-n2cccc2)c1,15.8,20.4,17.4,7.4,9.2,47,8.3,16.1,13.5,28.8,–,–
O=C(CCS)NCCc1cc(Cl)sc1Cl,16.9,32.8,29.8,32.1,33,58.9,20.9,30.2,22.5,43.7,–,–
O=C(CCS)NC1CCC2(CC1)COCCO2 (stereo not given),8.2,28.5,33.6,26.6,28.1,14.4,19.3,32,38.7,48.6,–,–
O=C(NCCS)C1CCCN1C1CCOCC1 (stereo not given),11.1,35.4,23.4,32.9,30.2,16.9,21.7,29.2,26.4,40.8,23.2,27.4
O=C(NCCS)C1CCN(C2CCCCC2)C1 (stereo not given),20.7,38,45.7,30.2,40.4,22.8,24.3,34.4,25.6,54.5,38.3,46.5
O=C(Cn1cc(Br)cn1)NCCS,12.7,32.4,27.1,53.4,26.9,18.8,28.7,31.6,29.5,39.2,37.9,37.3
Cc1nn(-c2cncc(Cl)n2)c(C)c1CC(=O)NCCS,13.7,19.9,14.2,20.9,14.3,20.9,12.2,15.2,9.6,16.4,28.2,24.6
N#Cc1cc(Oc2ccc(CC(=O)NCCS)cc2)ccn1,14.5,29.1,20.5,30.7,22.4,38.5,19.7,22.3,17.6,26.3,41.9,35.7
Cc1[nH]c2c(Cl)ccc(Cl)c2c1CCNC(=O)CCS,14.4,27,19.8,11.3,18.7,42.9,15,21.4,6.1,32.8,–,–
COc1ccc(C)cc1C1(C)NC(=O)N(CC(=O)NCCS)C1=O (stereo not given),11.8,32.4,22.8,38.3,25.8,21.8,23.5,28.5,33.2,37.9,35.4,33.1
Cc1nc2nccc(C(=O)NCCS)c2[nH]1,38.7,37.9,29.3,31.6,34.7,45.7,25,29.5,27.8,55.4,33.9,48.7

SMILES,percent labeling [1] [%],percent labeling [2] [%],percent labeling [3] [%],percent labeling [4] [%],percent labeling [5] [%],percent labeling [6] [%],percent labeling [7] [%],percent labeling [8] [%],percent labeling [9] [%],percent labeling [10] [%],percent labeling [11] [%],percent labeling [12] [%]
CC(Cc1cncc2ccccc12)C(=O)NCCS (stereo not given),20.3,36.4,39.4,28.6,36.8,37.7,29.8,38.6,27.8,44.8,44.9,39.3
O=C(CCS)Nc1ccn(CCN2CCOCC2)n1,12.8,36.4,37.5,34.5,34.6,20.4,26.5,29.5,35.1,42.5,–,–
O=C(CCS)N1CCc2sccc2C1c1ccc(Cl)cc1 (stereo not given),24.6,30.9,25.6,19.9,22.5,32.3,18.2,21.9,5.3,41.5,–,–
O=C(CCS)Nc1cc2c(cc1Cl)OCO2,20.3,29.5,36.3,19.8,24,42.1,18.9,23,23.5,45.9,–,–
Cn1cc(NC(=O)CCS)c(Oc2ccccc2)n1,14,36.8,35.9,36.3,38.7,39.1,18.4,34.4,33.7,62.9,–,–
CC1CCC(C)N1CC(=O)NCCS (stereo not given),32.4,46.4,40.5,31.4,41.6,38.8,31.6,34.8,33,49.4,46.9,42.4
O=C(NCCS)c1cnc(C2CCOCC2)nc1,14,27,26.9,33.1,32.3,27.3,23.3,31.4,30.1,46.4,27.2,41.1
O=C(CCS)N(Cc1ccc(-c2ccccc2C(F)(F)F)o1)C1CC1,24.8,36.5,21,14.3,26.7,60.5,20.1,25.5,10.1,50.4,–,–
O=C(NCCS)c1nc(-c2cccs2)n(-c2cccc(F)c2)n1,8.6,7.8,4.7,14.5,6.2,23.9,6.4,5.7,3.9,18.3,12.3,23.1
NC(=O)C1CCC2(CC1)CC(NC(=O)CCS)C2 (stereo not given),11.1,37,37.9,30.1,35.6,21.8,26,35.7,41.8,49.7,–,–
O=C(CCS)Nc1cc(Br)ccc1C(F)F,11,70.9,23.3,20.2,21.1,44.8,14.1,21.6,14.2,32.5,–,–
O=C(NCCS)C1CCOCC12CCCCC2 (stereo not given),16,34.7,23.6,30.5,34.9,20.9,30,33.1,31.3,51,42.6,34.8
O=C(NCCS)c1cccc(-n2ccnc2)n1,30,38.3,25.2,32.9,27.8,44,26.2,20.7,17.3,41.1,33.5,53.3
CC(=O)Nc1ccc(C)c(NC(=O)CCS)c1,14.2,28.8,39.8,31.5,29,29,30.3,28.4,35.2,47.2,–,–
O=C(CNc1nc(C(F)(F)F)nc2ccccc12)NCCS,20,23.6,18.4,23.8,29.1,33.8,23.6,15.8,13.6,22.7,33.4,30.4
O=C(NCCS)c1ccoc1C1(O)CCOCC1,22.2,43.3,25.2,40.5,31.4,37.2,28.7,37,33.1,49.7,40,42.5
O=C(CCC1NC(=O)N(c2ccc(Cl)cc2)C1=O)NCCS (stereo not given),16.1,31.1,29.1,36.3,23.8,29.9,21.2,27.5,25.6,32.3,38.7,54.3
Cn1c2ccccc2c2cc(C(=O)NCCS)sc21,18.4,14.6,9.8,20.5,8.4,55.7,16.4,15.6,11.3,19.7,32.1,27.3
CN(C)c1nccc(N2CCN(C(=O)CCS)CC2)n1,13.9,33.5,34.7,30.7,51.1,31.7,19.3,33.5,33.4,58.1,–,–
O=C(CCS)N(c1cc(F)cc(F)c1)C1CC1,25.9,36.9,36.5,23.2,29.7,40.3,41.1,30.7,39.1,51.8,–,–
CN(C)c1ncnc2c1cc(C(=O)NCCS)n2C,21.1,22,15.9,17.1,23.1,32.2,18.7,15.7,15,34.3,27,52.8
NC(=O)c1cc2n(n1)CC1(CCN(C(=O)CCS)CC1)OC2,20.3,32.7,43.1,31.4,41.4,23.3,24.5,29.2,27.6,49.5,–,–
O=C(CCS)Nc1cc(F)c(OC(F)F)cc1F,19,23.2,26.9,27.2,27.8,56.7,18.1,23.7,22.4,37.9,–,–
